Data from US11384076B2, “Synthesis, pharmacology and use of new and selective FMS-like tyrosine kinase 3 (FLT3) FLT3 inhibitors” (UNIVERSITÄT REGENSBURG, priority 2017, dated 2022).

What was measured:
[1] = system: Ba/F3 WT vs. mutant cells; experiment: FLT3 signaling in Ba/F3 WT and mutant cells, Western blot; settings: Ba/F3 WT and mutants, 5 nM, 2 h
FLT3-ITD in MV4-11 cells = experiment: FLT3-ITD signaling, Western blot of cell lysates; settings: MV4-11, 5 nM
[2] = Tolerability in xenotransplanted mice; type: in vivo; settings: oral or intraperitoneal, 4 or 24 hours after start of treatment
Method: (§1) To test the tolerability and in vivo efficacy of Marbotinib, xenotransplantation assays using NOD/SCID/yc (NSG) mice were performed. In a first experiment, 10×10^6 MV4-11 cells were transplanted subcutaneously into recipient mice (day 0). […] As a control, a cohort of transplanted mice were treated with the FLT3-inhibitor PKC412 (100 mg/kg). To investigate target efficacy, mice were sacrificed 24 hours after beginning of treatment. Upon preparation of single cell suspension derived from subcutaneous tumor nodes (90-100 cm^3), protein lysates were extracted immunoblot analyses performed.
Altogether, 18 mice were treated with different concentrations of Marbotinib either by oral administration (N=14) or intraperitoneal injections (N=4). Mice were sacrificed either 4 hours (N=9) or 24 hours (N=9) after start of treatment.

[3] = system: FLT3-phosphorylation and STAT5-phosphorylation in MV4-11 tumors; experiment: Subcutaneous MV4-11 xenotransplantation, immunoblot of tumor lysates (target efficacy); type: in vivo, NOD/SCID/yc (NSG) mice; settings: 0.1, 10, 100 mg/kg, oral or intraperitoneal, 24 hours after beginning of treatment
Method: FIG. 11. Immunoblot analyses of protein lysates derived from MV4;11 xenotransplanation models. Tumor nodes were explanted 24 hours upon start of treatment with indicated concentrations of PKC412 or Marbotinib and protein lysates were prepared. Immunoblot analysis was performed using anti-pSTAT5A/B (Tyr694/699), anti-(total)-t-STAT5 and anti-phospho-FLT3 (Tyr591) antibodies. Anti-GAPDH staining was used as loading control. For each condition 2 tumor samples were blotted.
as §1

Structure (SMILES) | effect on phosphorylation status of STAT5 and FLT3 [1] | p-STAT5 (FLT3-ITD in MV4-11 cells) | p-FLT3-ITD (FLT3-ITD in MV4-11 cells; 1 h) | toxic effects in analyzed organs (liver, lung, heart, kidneys) [2] | FLT3-phosphorylation in tumor nodes [3] | STAT5-phosphorylation in tumor nodes [3]
CC1(COc2ccc3c(c2)ncn3-c2ccc3cccc(N4CCC(N)CC4)c3n2)COC1 [Crenolanib, reference compound] | did not result in strong effects |  |  |  |  | 
CC(C)(C)c1cc(NC(=O)Nc2ccc3oc(C(=O)c4cc5cc(O)ccc5[nH]4)cc3c2)no1 [Marbotinib, 1-(5-(tert-butyl)isoxazol-3-yl)-3-(2-(5-hydroxy-1H-indole-2-carbonyl)benzofuran-5-yl)urea] |  | clear reduction | clearly reduces | no toxic effects were observed | inhibition | inhibition
